# Test results published in PMC4336329 (PLoS ONE, 2015).
# The whole screen tested about 310,000 compounds, of which about 14,000 (4.5%) showed an effect of 50% or more. Effects have a minus sign here. The list shows a part of the results.
# Target: human ether-à-go-go-related gene (hERG) potassium channel (human, UniProt Q12809)
# Experiment: primary screen, population patch clamp on CHO cells stably expressing hERG
# 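Also: peak tail current of the secondary pulse compared with the same well before compound.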
# Chain of human ether-à-go-go-related gene (hERG) potassium channel (Q12809 whole entry, looked up): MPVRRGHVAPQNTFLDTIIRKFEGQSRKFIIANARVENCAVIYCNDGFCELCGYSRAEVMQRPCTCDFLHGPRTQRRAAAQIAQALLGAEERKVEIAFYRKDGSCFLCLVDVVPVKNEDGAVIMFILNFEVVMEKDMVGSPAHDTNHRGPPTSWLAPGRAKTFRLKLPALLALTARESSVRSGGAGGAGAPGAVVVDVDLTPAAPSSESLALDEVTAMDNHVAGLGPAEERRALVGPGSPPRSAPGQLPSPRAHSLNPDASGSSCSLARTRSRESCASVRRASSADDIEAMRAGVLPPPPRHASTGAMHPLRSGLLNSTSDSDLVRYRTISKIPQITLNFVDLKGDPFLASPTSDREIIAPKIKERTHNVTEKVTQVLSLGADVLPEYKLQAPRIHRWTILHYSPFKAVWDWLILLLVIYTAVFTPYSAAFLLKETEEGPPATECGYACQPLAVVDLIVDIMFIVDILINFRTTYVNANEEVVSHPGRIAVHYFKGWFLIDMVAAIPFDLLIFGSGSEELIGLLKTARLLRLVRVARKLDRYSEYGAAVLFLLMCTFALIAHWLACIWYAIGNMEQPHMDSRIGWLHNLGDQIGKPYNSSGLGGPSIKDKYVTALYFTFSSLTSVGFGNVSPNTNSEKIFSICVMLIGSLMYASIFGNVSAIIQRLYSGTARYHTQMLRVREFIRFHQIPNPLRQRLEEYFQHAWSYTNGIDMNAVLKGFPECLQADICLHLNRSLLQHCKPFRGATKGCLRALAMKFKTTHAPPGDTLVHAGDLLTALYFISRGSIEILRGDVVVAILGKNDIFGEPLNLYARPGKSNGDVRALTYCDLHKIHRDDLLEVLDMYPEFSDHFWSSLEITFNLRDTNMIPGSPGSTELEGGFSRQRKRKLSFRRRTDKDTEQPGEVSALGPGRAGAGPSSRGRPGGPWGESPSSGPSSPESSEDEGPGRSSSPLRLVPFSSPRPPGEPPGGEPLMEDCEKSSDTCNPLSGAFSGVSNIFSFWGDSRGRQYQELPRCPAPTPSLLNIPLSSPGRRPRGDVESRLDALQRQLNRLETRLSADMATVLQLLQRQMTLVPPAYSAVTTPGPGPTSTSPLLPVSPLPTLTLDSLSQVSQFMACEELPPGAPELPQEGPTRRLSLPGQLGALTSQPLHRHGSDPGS
row,Compound,"hERG current change (%, negative = inhibition) at 10uM [%]"
1,C/C(=N/NC(=S)Nc1cccc(C)c1)c1cccc([N+](=O)[O-])c1,-11.4
2,O=S(=O)(c1ccccc1)c1cnc(-c2ccccc2)nc1N1CCCC1,41.8
3,Cl.Clc1ccc(CN2CCNCC2)cc1,0.541
4,N/C(=N\OC(=O)/C=C/c1ccccc1)c1ccncc1,-52.3
5,O=C(N/C(=C/c1ccccc1Cl)C(=O)N1CCCCC1)c1ccco1,13.5
6,COC(=O)/C=C1\N/C(=N\c2nc(C)cc(C)n2)N(c2ccc(C)cc2)C1=O,-46
7,NC(=O)c1ccc(N=Cc2c(O)n(Cc3ccco3)c(=O)[nH]c2=O)cc1,13.4
8,COc1ccc(NC(=O)C2CCN(c3nc(C)cc(C)n3)CC2)cc1,-2.14
9,CC(=O)c1c(C)[nH]c(C(=O)CSc2ncnc3sc(-c4ccccc4)cc23)c1C,1.3
10,CCN(CC)S(=O)(=O)c1ccc(N(C)Cc2cccc(OC)c2OC)nc1,-3.21
11,Cc1cccnc1NC(=O)c1cc2c(=O)oc3ccccc3c2s1,14.6
12,COCCNC(=O)C(c1ccc(C)o1)N(C(=O)c1snc(C(N)=O)c1N)c1ccc(C)cc1 (centres unmarked),-36.4
13,CC(=O)Nc1cccc(-c2nnc3c4ccccc4c(C)nn23)c1,-0.564
14,O=C(c1cc2ccccc2oc1=O)N(Cc1cccc(Br)c1)C1CCS(=O)(=O)C1 (centres unmarked),-15.1
15,CCOc1ccc(C(=O)NCCCCNC(=O)c2ccc(OCC)cc2)cc1,21.8
16,CCCn1c(SCC(=O)N2CCOCC2)nnc1-c1ccncc1,-0.351
17,CCC(C)Sc1nc2c(c(=O)[nH]1)C(c1cccs1)C1=C(CCCC1=O)N2 (centres unmarked),-16.9
18,CCNc1nc(NOC)nc(OCC#N)n1,17.9
19,CCOc1ccccc1N1CCN(C(=O)[C@@H]2CCCN2C2=NS(=O)(=O)c3ccccc32)CC1,-19.6
20,Cc1cc(C)nc(Nc2nc(=O)c3ccccc3s2)n1,2.62
21,O=C(C1=C[C@@H](C2CCCCC2)C[C@@H](OCCCCO)O1)N1CCN(Cc2ccc3c(c2)OCO3)CC1,-45.1
22,CCC(O)(C#CCN1CCCCC1)CC,-1.39
23,O=C(COc1ncnc2ccccc12)Nc1ccc(S(=O)(=O)N2CCOCC2)cc1,9.94

row,Compound,"hERG current change (%, negative = inhibition) at 10uM [%]"
1,CC(C)OCCCNS(=O)(=O)c1ccc2c(c1)oc(=O)n2C,2.69
2,COc1ccc(/C=N/NC(=O)c2cc(-c3ccccc3OC)nc3ccccc23)cc1COC(C)=O,4.06
3,O=C(Cn1nc(C(F)(F)F)cc1C1CC1)Nc1ccccc1F,4.41
4,Fc1ccc(OCc2nc3ccccc3s2)cc1,3.98
5,Cn1c(=O)oc2cc(S(=O)(=O)Nc3ccc4c(c3)OCO4)ccc21,-2.86
6,CCOC(=O)SC1=N/C(=C\c2ccc(N(C)C)cc2)C(=O)S1,14.9
7,CCCc1ncc(CN2CCCCC2C(=O)Nc2ccc(Oc3ccccc3)nc2)cn1 (centres unmarked),3.25
8,O=C(NC(=S)Nc1cccc(C(F)(F)F)c1)c1ccc2nonc2c1,10.8
9,CC1(C)CC(=O)C(C=NCC2CCCO2)=C(O)C1 (centres unmarked),7.93
10,O=C(N/N=C/c1ccco1)c1cc(-c2cccc3ccccc23)n[nH]1,7.01
11,COc1ccc2oc(C(=O)N3CCc4ccccc43)c(C)c2c1,15.1
12,COCc1nc(-c2ccc(-c3ccccc3)nc2OC)no1,-2.5
13,C/C(=N\NC(=O)c1c[nH]c2ccccc12)c1ccc(C)o1,-2.66
14,O=C(NCCN1CCCC1)c1ccc(CS(=O)(=O)c2c(Cl)cccc2Cl)o1,-45.5
15,Cc1nnc2ccc(-c3ccc(NS(=O)(=O)c4ccc(Cl)s4)cc3)nn12,0.314
16,Cc1c(NC(=O)c2cccc(NC(=O)Cc3ccccc3F)c2)c(=O)n(-c2ccccc2)n1C,3.2
17,O=C(Nc1ccccc1-c1ccccc1NC(=O)c1ccco1)c1ccco1,9.04
18,Cc1ccc(C)c(NC(=S)NC23CN4CN(CN(C4)C2)C3)c1,17.7
19,CCc1nnc(SCC(=O)Nc2ccccc2)nc1CC,-6.49
20,CC1C(O)=C(c2nc3ccccc3[nH]2)C(=N)N1c1ccccc1 (centres unmarked),-33
21,CCOC(=O)c1sc(N)nc1C(C)(C)C,1.39
22,COc1cccc(NC(=O)CSc2nnc(Cc3ccc(C)cc3)c(=O)n2N)c1,-33.5
23,Cc1ccc(C2(C)NC(=O)N(CC(=O)Nc3ccc(S(=O)(=O)Nc4nccs4)cc3)C2=O)cc1 (centres unmarked),14.4

row,Compound,"hERG current change (%, negative = inhibition) at 10uM [%]"
1,CCOC(=O)N1CCN(C(=O)COC(=O)C2CCN(S(=O)(=O)c3c(Cl)cccc3Cl)CC2)CC1,-38.1
2,Cc1c(OCC(=O)Nc2cccnc2)ccc2c3c(c(=O)oc12)CCC3,6.27
3,COc1ccccc1NC1=C(N2CCCCC2)C(=O)c2ccccc2C1=O,-5.01
4,COc1cc(C(=O)N2CCN(C(=O)C3CCCO3)CC2)cc(OC)c1OC (centres unmarked),2.7
5,Cc1cccnc1NC(=O)Nc1cccc(Cl)c1,-2.02
6,COc1cc(OC)c2c(-c3ccccc3)cc(=O)oc2c1C(CC(=O)N1CCOCC1)c1ccc2c(c1)OCO2 (centres unmarked),1.51
7,CN(C)c1cccc(C(=O)OCC(=O)NC2CCCC2)c1,26.2
8,O=C(Nc1ccc2c(c1)OCO2)c1ccc(Cl)s1,-2.22
9,O=C(Nc1ccccc1N1CCCCC1)c1ccc(F)cc1,5.02
10,CCOc1ccc(CC(=O)OCn2nnc3ccccc3c2=O)cc1,11.4
11,COc1ccc(CNC(=O)CCSCc2cccc(Cl)c2)cc1,-17
12,Cc1ccc(Cn2c(Cc3ccccc3)nc3ccccc32)cc1,-10.1
13,O=C(CSc1nnc([C@@H]2CCCN2)o1)c1ccc(Cl)cc1,-9.42
14,COc1cc(/C=N/N=C(N)N)ccc1OCc1ccccc1Cl,-48.2
15,COc1ccc(CCN2C(=O)CC(NNC(=O)c3ccccc3Br)C2=O)cc1 (centres unmarked),-19
16,Cn1ncc([N+](=O)[O-])c1C(=O)Nc1nc2ccccc2n1CCN1CCCCC1,-25.1
17,O=c1ccc2ccc(OCc3nnc(-c4ccccc4Br)o3)cc2o1,4.87
18,O=C1CCCN1C(=O)COc1ccccc1[N+](=O)[O-],13.7
19,O=C(Nc1ccc(F)cc1)c1cncs1,5.86
20,COc1ccccc1N(C(=O)CNC(=O)c1ccco1)C(C(=O)NC1CCCC1)c1ccco1 (centres unmarked),10.8
21,CC(=O)N(c1nnc(-c2ccc(C)cc2)s1)C1CCCC1,4.45
22,Cc1ccc2[nH]c3c(c2c1)CCN(C)C3,-1.44
23,O=S(=O)(Nn1cnnc1)c1ccccc1,5.31

row,Compound,"hERG current change (%, negative = inhibition) at 10uM [%]"
1,Cc1coc2c(C)c3oc(=O)c(CCC(=O)N[C@@H](C)C(=O)N[C@@H](Cc4ccccc4)C(=O)O)c(C)c3cc12,-10.2
2,C=CCN(c1nc(C)c(Br)c(OC)n1)S(=O)(=O)c1ccc(C)cc1,13.5
3,COc1ccc(-c2ccc(-c3noc(-c4ccccc4)n3)c(OC)n2)cc1,-4.42
4,Cc1noc(C)c1S(=O)(=O)Nc1cccc(CO)c1,13.9
5,CC(=O)C1=C(C)NC(C)=C(C(C)=O)C1c1ccccc1,13.5
6,COC(=O)CSc1nnc(-c2cccs2)n1-c1ccc(Cl)cc1,-60.4
7,COCCNC(=O)C(C#N)c1nc2ccccc2nc1N1CCCCCC1 (centres unmarked),-14.2
8,Brc1ccc(-c2nnc3n2CCCCC3)cc1,-18.1
9,CC(=O)NCCc1ccc(C(=O)Cn2cnc3ccccc3c2=O)cc1,2.36
10,Cc1ccccc1-c1nnn(Cc2ccc(-c3nn[nH]n3)cc2)n1,10.7
11,O=C(O)c1cc(=O)[nH]c2c(Cl)cccc12,19.8
12,O=c1c2ccccc2[nH]c(=S)n1CCc1ccccc1,16.8
13,O=c1c([N+](=O)[O-])cccn1Cc1cccc(Br)c1,0.665
14,O=C(Cn1c(=O)oc2cc(S(=O)(=O)N3CCCCC3)ccc21)N1CCc2ccccc21,1.97
15,COC(=O)CSc1nc2sc3c(c2c(=O)n1C1CCCCC1)CCN(C)C3,-6.68
16,CC(=O)Nc1ccc(NC(=O)c2ccccc2CCc2ccccc2)cc1,1.94
17,Cc1ccccc1CCN(C(=O)Cn1nnc2ccccc21)C(C(=O)NCC1CCCO1)c1nc2ccccc2n1C (centres unmarked),7.51
18,Brc1ccccc1OCCCCn1cnc2ccccc21.Cl,11.7
19,O=C(Cn1c(C(F)(F)F)nc2ccccc21)Oc1cccc(C(F)(F)F)c1,-4.06
20,COc1ccccc1NS(=O)(=O)c1cccc(C(=O)N2CC(C)OC(C)C2)c1 (centres unmarked),-7.71
